± gives the standard deviation of the averaged measurements. The list shows a part of the results.
These sequences were tested on PfAP2-LT AP2 domain (GST-tagged) (assay: gcPBM binding intensity (ln(normalized median fluorescence intensity)); higher = stronger DNA binding).
Procedure, shortened: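 Probes on an Agilent 4 × 180k array were primer-extended, double-stranded and 36 bp long, taken from intergenic genomic regions, with negative controls added. GST-tagged P. falciparum DNA-binding domains from E. coli, about 25 μg on average, were applied to the array for 1 h in 1× PBS containing 1% milk, 0.2 mg/ml BSA, 0.5% salmon testes DNA and 0.03% Triton X-100. Binding intensity, obtained after Alexa488 anti-GST antibody detection and a 488 nm scan, is the highest Masliner-normalised natural-log median intensity across replicate spots of either probe orientation.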

| Sequence | gcPBM binding intensity (ln) |
| --- | --- |
| AATATATTTATGCTCATGCACTTTTTTTTTTTTTTT [GTGCAC_site9654] | 8.85 ± 0.61 |
| TATCAATATTAAAAAGTGCAAAATAAAATATAAAAT [GTGCAC_site9486] | 8.97 ± 0.39 |
| TATATTATATATTGGGGTACATATATATAAATATAA [XGTACX_site2296] | 8.55 ± 0.18 |
| TTATGTTGTAAATGCACACATACAAATACAGATACA [CACACA_site4876] | 9.06 ± 0.29 |
| GAAAACAAATATGTAGCACACATTCACATAATATAT [CACACA_site8731] | 9.16 ± 0.45 |
| ATAAATATAAAAATTTGTACATATATAGGTATAGGT [XGTACX_site1735] | 8.96 ± 0.47 |
| ATTATAATGGTAAAGTGTACAAATTTTTATTACACC [XGTACX_site5274] | 8.9 ± 0.38 |
| TCTTGTATATACAGTAGTACTAAAAATTATTAAATA [XGTACX_site7896] | 8.41 ± 0.42 |
| ACATACAAGAATTAAACACACACAAAATATAAATTC [CACACA_site8985] | 9.62 ± 0.48 |
| TGTTTTTTGTTCTTTACAAAAAAAAAAAAAAAAAAA [GTGCAC_negctrl_site61] | 8.21 ± 0.17 |
| TTTATTTATTATTAAAGTACTAAATTACATTATTAT [XGTACX_site6624] | 8.52 ± 0.64 |
| TATTTAATTACATGAACACACATTAGATATTTTTAA [CACACA_site7405] | 8.51 ± 0.4 |
| CATTATTTACCGCCGTGTACGTAATGAGAAATTAAA [XGTACX_site4662] | 8.62 ± 0.48 |
| TTATTTCAAATTAATTTACACACTTCATACTAAAAG [CACACA_site9039] | 8.64 ± 0.43 |
| TAATAAAAAAAGTGCACACACATAATATTTATATAT [CACACA_site7548] | 9.14 ± 0.36 |
| ACATGTTTTATGTGCACACAAAGTTGTTATGAGGTT [CACACA_site4031] | 9.72 ± 0.23 |
| ATATAATATTTCATGTGGACACATTTTATGATTGTA [XGTACX_site8770] | 8.85 ± 0.39 |
| ACACATATATATTATTATTATATAATATATATATAT [CACACA_negctrl_site1545] | 8.78 ± 0.32 |
| AATCAAAATTAATTAACACACAATTTTAATATTCTT [CACACA_site2063] | 8.64 ± 0.48 |

| Sequence | gcPBM binding intensity (ln) |
| --- | --- |
| ATAGTAAACGAAATAAAAAGATTAGCATAATATCCT [CACACA_negctrl_site1730] | 8.88 ± 0.46 |
| ATTGTTTATATTGATTGTACTCATTTTTTTTTTATT [XGTACX_site1946] | 9.03 ± 0.38 |
| ATATATTATATATATTACAACTTAAGAATATACATA [TGCATGCA_negctrl_site371] | 8.45 ± 0.3 |
| TCCTGTGATTATATAACACACATTATTGCTTATAAG [CACACA_site1518] | 8.93 ± 0.31 |
| ATTATATATATATATACACACACACCCTAAAAATAT [CACACA_site8463] | 9.8 ± 0.014 |
| ATATATTGAAAAAAATGTACGTATTTTTTTATGTTA [XGTACX_site4654] | 8.63 ± 0.36 |
| TAAGCTTGTAACAGTTTACACACTAATATTTATAAA [CACACA_site3907] | 8.57 ± 0.39 |
| AATAAATATATTACATATATGTGTAGTATTTTTTTA [TGCATGCA_negctrl_site268] | 8.61 ± 0.4 |
| TTATTAAATTTTTTTTGTACTTATATATATATATAT [XGTACX_site2443] | 8.85 ± 0.52 |
| ATTATTATATAGTGTGCATGCAATATTAATAAAACC [TGCATGCA_site245] | 9.36 ± 0.23 |
| TATGAATGTATATGTTGTACATATAAATATTTATAT [XGTACX_site1146] | 8.81 ± 0.45 |
| GTTGTTATATAAAATTGTACATAAAAAACAAAATAT [XGTACX_site5313] | 8.69 ± 0.42 |
| TTTTCTTTCTTTCAAACACACATTAATTTTATTCAT [CACACA_site2734] | 8.75 ± 0.58 |
| TAAAATTATTAATGAGTGCATTATAAAATCTATATA [GTGCAC_site9493] | 8.38 ± 0.46 |
| ATAAATGGCTATAGCATATTGTATATGTGATTATAA [CACACA_negctrl_site948] | 8.9 ± 0.49 |
| ATTATACACCCGCGCACACACAACAAAAAAAAAAAA [CACACA_site5871] | 9.67 ± 0.61 |
| ATGCAATTATATAGTAGTACAAATTTATAAATATAC [XGTACX_site4869] | 8.94 ± 0.37 |
| TCATATATTATATATTGTACAAAATAATAAGTATTT [XGTACX_site3987] | 8.58 ± 0.47 |
| ATAATTGTTTAAAGGTGTACAATACATATATTTTAA [XGTACX_site3648] | 8.64 ± 0.5 |

| Sequence | gcPBM binding intensity (ln) |
| --- | --- |
| ATATATATATATATGGGTACGTAAAAATATAATAAA [XGTACX_site4036] | 9.12 ± 0.46 |
| ATGAAAATATTTAAAAGTACAGAAATATAAAACCTT [XGTACX_site403] | 8.74 ± 0.4 |
| CACAAATATACAAATACACACAAATATACACATATA [CACACA_site7176] | 9.4 ± 0.38 |
| TATAAAATATAAATAAATAAATAAATATATATATAT [TGCATGCA_negctrl_site448] | 8.71 ± 0.42 |
| AAAATATTTATCATTTGTACTTAGATGTAAACTTGA [XGTACX_site1778] | 8.46 ± 0.42 |
| TATTTTATACACTTGCTAAAACATTAACACATATGT [CACACA_negctrl_site1818] | 8.87 ± 0.64 |
| AAAAAACAAAAACACACGCACACAAAAAAAAAAAAA [CACACA_site802] | 9.4 ± 0.33 |
| TATATATATATATATTGTACTAAATCATTTAAATGA [XGTACX_site8016] | 8.89 ± 0.16 |
| ACCTATATAAATTATACACACAAATATAAATATATA [CACACA_site2843] | 8.93 ± 0.41 |
| AATTATATATAACGTAGTACATATTATAAACCACGT [XGTACX_site8816] | 8.96 ± 0.36 |
| TATAATAATAATGATAGTACGTATGAGTTCAAGAAA [XGTACX_site4918] | 8.9 ± 0.52 |
| TTGTTATTCCACCGTTGTACAGTTATATACATACAC [XGTACX_site8296] | 9.05 ± 0.52 |
| TGTCATAAAACCGTTTGTACATATTAATAGACACCT [XGTACX_site4520] | 8.77 ± 0.42 |
| ATATTCCTTTAATATTGTACTATTTTTTTCCTTATA [XGTACX_site8659] | 8.81 ± 0.51 |
| TATGTACAAATATGTACACACACACCGATATATATA [CACACA_site4487] | 9.56 ± 0.26 |
| ACTAATAACAAAAGCTTGCACTTTTTTTTTCCTAAT | 8.56 ± 0.52 |
| TGTATCCACATATGTACACACATATATCTGTATATG [CACACA_site5668] | 9.26 ± 0.37 |
| TATAATTTTCTTAGTAGTACATTTTAAATCTACTAC [XGTACX_site2621] | 8.59 ± 0.57 |

Source: the supplement of paper PMC11417369
